In all, about 110,000 compounds went through this assay and about 230 (0.21%) showed an effect of 50% or more. This is one part of the list.
target: DPAP1 (Plasmodium falciparum, UniProt Q8IIJ9); experiment: primary screen, percent inhibition; read by cleavage of a fluorogenic dipeptide substrate; higher = more effect of the substance; design: species or system P. falciparum D10 trophozoite lysates; single well
Protocol: HTS was performed in black 384-well plates. The first and last two columns of each plate contained our negative (DMSO) and positive (10 μM JCP410) controls, and the 20 central columns the test compounds at 10 μM. Compounds were first diluted 50-fold into assay buffer (50 mM sodium acetate, 5 mM MgCl2, 10 mM β-mercaptoethanol, and 0.1% CHAPS, pH 5.5) from a 10 mM DMSO stock plates. One microliter of this 200 μM intermediate stock plate was dispensed into the assay plate. […] After 30 min, the reaction was quenched with 20 μL of 0.5 M acetic acid, and the fluorescent intensity measured at 523 nm (λex = 492 nm) using an Analyst HT multimode plate reader (Molecular Devices).
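Further: 30 min substrate incubation versus DMSO and 10 µM JCP410 controls.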

Sequence of DPAP1 (Q8IIJ9 whole entry, looked up): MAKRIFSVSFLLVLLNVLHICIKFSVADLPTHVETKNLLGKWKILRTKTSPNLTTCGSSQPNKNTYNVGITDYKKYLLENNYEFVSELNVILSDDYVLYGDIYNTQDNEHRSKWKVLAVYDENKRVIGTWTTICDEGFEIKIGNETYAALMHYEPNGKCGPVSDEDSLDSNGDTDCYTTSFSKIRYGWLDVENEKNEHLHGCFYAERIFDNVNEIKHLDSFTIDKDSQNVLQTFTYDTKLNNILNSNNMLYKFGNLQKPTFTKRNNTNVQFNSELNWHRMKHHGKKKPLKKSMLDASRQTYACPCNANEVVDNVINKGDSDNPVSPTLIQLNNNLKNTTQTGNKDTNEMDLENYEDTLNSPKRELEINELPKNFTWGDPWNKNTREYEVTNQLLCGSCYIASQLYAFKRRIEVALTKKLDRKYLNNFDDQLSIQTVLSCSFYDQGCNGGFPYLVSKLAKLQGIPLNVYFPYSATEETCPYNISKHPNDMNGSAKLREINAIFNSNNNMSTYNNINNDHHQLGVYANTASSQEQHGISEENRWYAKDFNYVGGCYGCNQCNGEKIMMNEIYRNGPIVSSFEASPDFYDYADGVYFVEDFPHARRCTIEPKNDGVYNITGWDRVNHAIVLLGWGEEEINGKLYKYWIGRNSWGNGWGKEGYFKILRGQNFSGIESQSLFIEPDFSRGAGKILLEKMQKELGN

SMILES	% Inhibition @ 10 uM [%]
O=C(Nc1ccc2c(c1)OCCO2)NC1CCCCC1	4.83
Cc1ccc(C)c(Cn2c(C(=O)O)c(CNCCc3c[nH]c4ccccc34)c3ccccc32)c1	0.277
N#Cc1c(NC(=O)c2ccco2)sc2c1CCC2	4.6
O=C(c1ccc(Cl)cc1)N1CCN(CCO)CC1	3.48
O=C(c1ccc(F)cc1F)N1CCN(c2cc(N3CCOCC3)c(F)cc2[N+](=O)[O-])CC1	-1.32
C=CCn1cc(C=C2C(=O)OC(c3ccccc3)OC2=O)c2ccccc21 (centres unmarked)	-1.92
O=C(O)c1cccc(NC(=O)c2ccc(C(=O)Nc3cccc(C(=O)O)c3)cc2)c1	9.19
CCCCN(C(=O)c1cc(OC)c(OC)c(OC)c1)C1CC2CCC(C1)N2C (centres unmarked)	5.4
O=C(N[C@@H](CC1CCCCC1)C(=O)NC(CNc1ccccc1)CNc1ccccc1)c1ccccc1	-5.21
CCO/C(O)=C1/C(C)=Nc2ncnn2C1c1ccc(SC)cc1 (centres unmarked)	-1.62
Cc1cc2nc3[nH]c4ccccc4c3nc2cc1C	-2.36
COc1ccc(N2C(=O)CC(N3CCC(Cc4ccccc4)CC3)C2=O)cc1 (centres unmarked)	1.35
COc1ccc(OC)c(C2CCN(S(=O)(=O)c3ccc(-c4cc(C(F)(F)F)no4)s3)C2)c1 (centres unmarked)	-3.26
C[C@@H](C[C@H](NC(=O)c1ccc(-c2ccccc2Cl)[n+]([O-])c1)C(=O)NCC#N)c1ccccc1	-6.56
Cc1ccc(NC(=O)COc2cc(C)ccc2C(C)C)c(Br)c1	-0.351
Brc1ccc(C2=CC(c3cccs3)n3ncnc3N2)cc1 (centres unmarked)	1.12
COc1ccccc1-c1c(C)nn2c(N(C)CCC#N)cc(C)nc12	-1.46
CS(=O)(=O)N(CC(=O)Nc1ccc(OCc2ccccc2)cc1)c1cccc(F)c1	-7.34
Cc1[nH]c(-c2ccc(F)cc2)cc1C(=O)N1CCN(c2ccccn2)CC1	5.8
CCCCCCOC(=O)c1[nH]c2c(c1C)C(=O)CC(c1ccco1)C2 (centres unmarked)	-3.87
N=C1/C(=C/c2ccc(O)cc2)C(=O)N=C2SC(c3ccccc3Cl)=NN12	-3.4
CC(=O)Nc1ccc(C(=O)Nc2ccc(S(=O)(=O)N3CCC(C)CC3)cc2)cc1	2.22
O=C(NCc1cccs1)C1CCC(CNS(=O)(=O)c2ccc(Br)s2)CC1 (centres unmarked)	1.16
CC(C)(C)NS(=O)(=O)C1CCS(=O)(=O)C1 (centres unmarked)	0.215
CCC(CC)C(=O)Nc1noc2ccccc12	2.19
COc1ccc(CN2CCN(c3ccccn3)CC2)cc1C	1.48

SMILES	% Inhibition @ 10 uM [%]
COc1cccc(Nc2nc(-c3ccc(Br)cc3)cs2)c1	-2
CCc1nnc(S)c2cc3sccc3n12	4.83
O=C1CC(C(=O)Nc2nncs2)C(c2ccccc2)O1 (centres unmarked)	2.1
CC1(C)CC(=O)c2c(-c3cccs3)n[nH]c2C1	-3.63
CCN(CC)C(=O)C1CCCN(Cc2ccc(OC)c(OC)c2)C1 (centres unmarked)	-1.98
CCN(CC)c1ccc(NC(=O)C(C)Oc2ccccc2)cc1 (centres unmarked)	0.843
CC(C)(C)NCCCCOc1ccc(F)cc1	-1.54
C=CCN1Cc2ccc(C(=O)O)cc2C1	-5
CCOC(=O)C1=C(CN2CCN(C(=O)OCC)CC2)NC(=O)NC1c1ccc(F)cc1 (centres unmarked)	-4.69
N#CCNC(=O)[C@H](CC1CCCCC1)NC(=O)c1sc2ccccc2c1Cl	2.86
Clc1ccccc1OCCCCn1ccnc1	4.9
CC(C)c1ccc(/C=C2\C(=N)N3N=C(N4CCCC4)SC3=NC2=O)cc1	0.0579
CCC(C(=O)N1CC(C)CC(C)C1)n1c(C(=O)OC)cc2occc21 (centres unmarked)	-6.24
O=[N+]([O-])c1ccc(N2CCN(S(=O)(=O)c3ccc(Cl)cc3)CC2)c(Cl)c1	4.7
CC1(C)CC2=Nc3ccccc3NC(c3ccccc3F)C2=C(O)C1 (centres unmarked)	-5.48
CC(=O)c1cccc(NC(=O)COc2ccccc2Cl)c1	2.79
Cc1ccc(-c2cc(-c3ccccc3)nc(O)n2)cc1	4.03
COc1ccc2[nH]c3c(=O)n(CCCCC(=O)N4CCN(c5ncccn5)CC4)c(=S)[nH]c3c2c1	-5.76
CC(C)(C)c1ccc(CN(C(=O)c2cc(=O)c3ccccc3o2)C2CCS(=O)(=O)C2)cc1 (centres unmarked)	-1.47
Oc1nc2ccccc2n2cccc12	-7.57
CC(C)N(C(=O)Cn1c(=O)oc2ccccc21)c1ccccc1	0.658
Cc1cc(C)nc(NC(=O)c2cc(-c3ccccc3)nc3ccccc23)n1	-5.28
CCC(C(=O)Nc1ccc(NC(C)=O)cc1)c1ccccc1 (centres unmarked)	-1.24
CCN1CCCC1CNC(=O)C1CCN(c2nnc(-n3cccc3)s2)CC1 (centres unmarked)	-0.522
COc1ccc(NCc2ccc(C(F)(F)F)cc2)cc1	-4.03
Cc1nc2ncnn2c(O)c1Cc1ccccc1	1

SMILES	% Inhibition @ 10 uM [%]
Cc1cccc(OCCCn2c(CCCO)nc3ccccc32)c1	2.92
CC(C)(C)c1ccc2c(c1)C(=O)NC2=O	-7.99
Fc1ccc(N2N=C(/C=C/c3ccc(Cl)cc3)CC2c2ccc(Cl)cc2)cc1 (centres unmarked)	-7.02
COc1ccc(-c2noc(-c3nnn(-c4ccccc4C(F)(F)F)c3N)n2)cc1	6.44
Cc1ccccc1C(=O)Nc1ccc(S(=O)(=O)N2CCOCC2)cc1	0.408
Cc1c(CN(C)C)c2c(n1C)C(=O)c1ccc(Br)cc1-2	3.74
COc1ccc(C(=O)Nc2ccc(S(=O)(=O)N3CCOCC3)cc2)cc1	3.13
O=C(NCc1ccc2c(c1)OCO2)[C@H](Cc1ccccc1)N1Cc2ccccc2C1=O	-2.25
COC(=O)c1sc2cc(OC)ccc2c1Cl	5.03
Cn1c(=O)c2c(nc(CN3CCOCC3)n2Cc2ccccc2Cl)n(C)c1=O	1.23
C=CCN(Cc1nc(-c2ccc(Cl)cc2)no1)S(=O)(=O)c1ccc(C)cc1	2.41
Cc1nc2cc(Br)ccc2[nH]1	-3.88
O=C(Cn1ncc2ccccc21)NCCCc1ccccc1	4.84
COCCNS(=O)(=O)c1ccc(-c2cc(C(F)(F)F)no2)s1	0.359
CC1CCN(S(=O)(=O)c2cn(CC(=O)N3CCN(C)CC3)c(=O)c3ccccc23)CC1	3.5
Cc1ccc(CC2CC(=O)N(c3ccccn3)C2=O)cc1 (centres unmarked)	20.5
O=C(Cn1ncn2nc(-c3cccs3)cc2c1=O)NCCCN1CCN(Cc2ccccc2)CC1	2.27
COc1ccc(CN(C(C)=O)C2CC(=O)N(c3ccc(Cl)cc3)C2=O)cc1 (centres unmarked)	2.92
Cc1ccc(C2Nc3ccccc3N=C3CC(c4cccs4)CC(O)=C32)o1 (centres unmarked)	-1.38
Cc1nc2nc(NC(=O)c3ccccc3)nn2c(O)c1C	-6.81
Cc1c2cnn(CC(=O)NCCCOC(C)C)c(=O)c2c(C)n1Cc1ccccc1Cl	-2.17
C=CCN(CC=C)S(=O)(=O)c1cc(Cl)ccc1Cl	4.54
CCCN1C(=O)c2[nH]nc(-c3cc(C)ccc3O)c2C1c1ccc(C)cc1 (centres unmarked)	-2.92
O=C(c1ccccc1)N1CCC(O)C2CCCCC21 (centres unmarked)	-0.703
Cc1c(C2(c3c(C)n(C)n(-c4ccccc4)c3=O)C(=O)Nc3ccc(Br)cc32)c(=O)n(-c2ccccc2)n1C	0.215
O=C(O)CCNC(=O)/C(=C/c1ccc2c(c1)OCO2)NC(=O)c1ccco1	1.01

SMILES	% Inhibition @ 10 uM [%]
Nc1nc2n(n1)C(c1ccc(Cl)cc1)CC(=O)N2 (centres unmarked)	-2.65
O=C(CCCn1c(=O)c2cccn2c2cccnc21)NCCCc1ccccc1	4.39
N#CC1=C(N)OC2=C(C(=O)CC(c3ccco3)C2)C1c1ccc2c(c1)OCO2 (centres unmarked)	5.48
Cc1ccc2oc(=O)c3cnn(CC(=O)Nc4nc(C)cs4)c3c2c1	-1.7
O=C1CCC(=O)N1CCSC(=S)N1CCOCC1	6.18
Cc1nc(N)sc1-c1csc(Nc2ccc(N(C)C)cc2)n1	-4.32
COc1cc(CNCc2cccnc2)ccc1OCC(N)=O	-3.26
CCC(=O)N1CC2(C)CN(C(=O)CC)CC(C)(C1)C2	3.27
CCOC(=O)c1nn2c(C(F)(F)F)cc(-c3ccco3)nc2c1Cl	3.76
Cc1nc2c(C(=O)N3CCCC3)cnn2c(C)c1Cc1ccccc1F	1.27
Cc1nc2ccccc2nc1-c1ccc([N+](=O)[O-])cc1	1.29
CCOC(=O)N1CCN(Cc2nc(-c3ccc(OC)cc3)no2)CC1	3.57
C=CCO/C(O)=C1\C(C)=NC(SCC(=O)Nc2nccs2)=C(C#N)C1c1ccco1 (centres unmarked)	3.79
COc1ccc(C2NC(C(=O)O)Cc3c2[nH]c2ccccc32)cc1OC (centres unmarked)	-5.9
COc1ccc(CCNS(=O)(=O)c2ccc(OC)c(Cl)c2Cl)cc1	1.59
O=C(Cc1ccccc1)N1CCN(c2ccccn2)CC1	3.72
CC(=O)N1C(=O)c2cccc3cccc1c23	0.273
CCOc1ccc(C(=O)/C=C/c2ccccc2C(F)(F)F)cc1	5.7
COc1cccc(S(=O)(=O)NCC(=O)N2CCN(C(=O)c3ccco3)CC2)c1	1.17
O=S1(=O)C(/C=N/CC2CCCO2)=C(O)c2sccc2N1Cc1ccccc1 (centres unmarked)	-4.22
CCOc1ccccc1CNC(=O)c1ccc(CS(=O)Cc2ccc(C)cc2)o1 (centres unmarked)	2.83
O=C(NCCNC(=O)c1ccc(C(F)(F)F)cc1)c1ccc(C(F)(F)F)cc1	2.18
O=C(Nc1nc2c(s1)CCCC2)c1ccccc1Oc1ccccc1	0.222
